Here are results for 44 sequences from the supplement of paper PMC11417369.

± gives the standard deviation of the averaged measurements. The list shows a part of the results.

In this test the test system is PfAP2-EXP AP2 domain (GST-tagged). The experiment in a line: gcPBM binding intensity (ln(normalized median fluorescence intensity)); higher = stronger DNA binding. In outline: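 Each value is the highest Masliner-normalised natural-log median intensity across replicate spots of either orientation of a probe. The probes were primer-extended double-stranded 36-bp intergenic genomic sequences on an Agilent 4 × 180k array, alongside negative controls, exposed for 1 h to GST-tagged P. falciparum DNA-binding domains expressed in E. coli. Bound protein was picked up with Alexa488 anti-GST antibody and scanned at 488 nm.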
For the sequence “TATAAATATACACCCACACACATATATAAATAAATA [CACACA_site7717]”, the “gcPBM binding intensity (ln)” value was found to be 8.93 ± 0.79. The figure for AAGAATTTAGAAGGCATGCACTTAAACATGCATATA is 9.02 ± 0.2. The figure for “CATATAATAAATAATACACACATATTGTAAATATAT [CACACA_site5734]” is 8.43 ± 0.44. The figure for AATTGAGTATCGTGAGTGCAAAACGTGGTTCAAAGA is 9.06 ± 0.16. Take “TAAAATAAAATAAAATGTACTTTCCTTTTGATAATA [XGTACX_site6288]”: the “gcPBM binding intensity (ln)” value amounted to 8.05 ± 0.4. Next, “GTAATGAACAAACACAAAAAAAAAAAAAAAATAATA [TGCATGCA_negctrl_site344]”: 8.38 ± 0.31. The figure for “TTTTCCCTTACAGAAAAAAAAAAATTCCTAACCCCG [CACACA_negctrl_site650]” is 8.83 ± 0.65; for “TTATATATTTATAATCGTACAATAATTAACGTAAAA [XGTACX_site3206]” it is 8.6 ± 0.3; for “ATATATTTTAGGAGAGTGCATTTAATATTATTTAAT [GTGCAC_site9444]” it is 8.495 ± 0.021. Next, “TTTTTCTTTTTTTTTTCCTTTATCACATAAGAAAAA [CACACA_negctrl_site192]”: 8.62 ± 0.54. Take “AAAATGAAGAAGTGCACACATATATATATTTATATA [CACACA_site507]”: the “gcPBM binding intensity (ln)” value stood at 9.11 ± 0.2. The figure for “AAGATATGAGGGAATACACACATATATATATATATA [CACACA_site1581]” is 10.2 ± 0.43. Next, “AAGAAAATAAATAATACACACAAGGATTTGTAAATA [CACACA_site690]”: 8.59 ± 0.29. On to “CTTTTTTTTTAAAAATGTACACATTTTTGAAAATAC [XGTACX_site3127]”, for which the “gcPBM binding intensity (ln)” value was 8.35 ± 0.28. Next, “ATATGTTTGATTTTTTTTTTTTTTTTTTTTATGTGT [CACACA_negctrl_site1001]”: 8.1 ± 0.51. The figure for “AAAAAAAAAATTAAAAGTACAGAAAATAAATAAATA [XGTACX_site7470]” is 8.61 ± 0.38; for “TTAATACACCATAAAAGTACATAATATGATATTTAA [XGTACX_site8561]” it is 8.23 ± 0.4. The figure for “ATATATATAAATATATGTACATAAATATATTTGTAA [XGTACX_site6715]” is 8.47 ± 0.42; for “AATTAAACTTTGTTTTTGTTTTTTTTTTTTATATTT [CACACA_negctrl_site1316]” it is 8.04 ± 0.43; for “TGGTGATATACGAAATGTACGCAAATCACAAAATAA [XGTACX_site8836]” it is 8.68 ± 0.33. On to “TCTTTAACAAGTTAAACACACATACCTATATACATA [CACACA_site7237]”, for which the “gcPBM binding intensity (ln)” value turned out to be 8.51 ± 0.3. Regarding “AAATAAAAATTAAAAAAATAGAAACGAATTGAATGC [TGCATGCA_negctrl_site365]”, the “gcPBM binding intensity (ln)” value is 8.87 ± 0.26. The figure for “CGCGTATAACGAAATTGTACAAAAAAAATTAAACAT [XGTACX_site6813]” is 8.9 ± 0.46. The figure for “AACAATTTTTAAAGGTGTACAATATGTATATAAGAA [XGTACX_site254]” is 8.92 ± 0.3; for “ATTAAATTAAAATAATGTACTTAATACTTTTGCTTA [XGTACX_site8404]” it is 8.16 ± 0.53; for “TCAACGATCACTCGGTGTACTATAAATGAGAGAATT [XGTACX_site1820]” it is 8.53 ± 0.42.

As for “AATTTTGAGATGTGGTGTACACAAAATTAGTTAGAC [XGTACX_site7033]”, the “gcPBM binding intensity (ln)” value came to 9.23 ± 0.29. Next, “ATATATATATATAAAGGTACACATTTATTAAATATA [XGTACX_site7102]”: 10.1 ± 0.12; “TATTTGCAATATTATACACACATTAGATATTGCAAA [CACACA_site7565]”: 8.65 ± 0.25; “TAATATATATAACATATACACACGTTCATATATATA [CACACA_site462]”: 8.43 ± 0.35.

Regarding “AAAAAAAAAAAAAAATGTACATATATAATATTTATA [XGTACX_site5117]”, the “gcPBM binding intensity (ln)” value was 8.34 ± 0.35. Next, “TACAAAATGTTATATCAATATAGATAAAAAAATGAA [XGTACX_negctrl_site285]”: 8.66 ± 0.55; “AACAAATTAATTCTAGTGCAGGACGTATTTGTGTAC [GTGCAC_site9907]”: 8.87 ± 0.37. Next, “AAACAAATATATATATGTACTTATAAAAAAAAAAAT [XGTACX_site2211]”: 8.54 ± 0.45. As to “TAAGGATATATATATTCACACACACCGGGAAATATA [CACACA_site8020]”, the “gcPBM binding intensity (ln)” value came to 8.83 ± 0.38. “TTTTTATTTTTTGAAACACACACAAAAAAAATGATA [CACACA_site8564]”: the “gcPBM binding intensity (ln)” value was 8.51 ± 0.4. The figure for “CATTTTTTGCTTTCAACACACATACAATATATATAA [CACACA_site6127]” is 8.69 ± 0.49; for “CTTTATTTTTTATACACACACAATATGTATATATAT [CACACA_site3550]” it is 8.69 ± 0.36; for “AAGGATCACGCACAAACACACATATTTATATTTATA [CACACA_site6405]” it is 8.39 ± 0.33.

For the sequence “TATATATGGAAAAGAGTCAAAAAGAAAAAAGAAAAA [CACACA_negctrl_site1374]”, the “gcPBM binding intensity (ln)” value amounted to 8.56 ± 0.62.

With “TATGAAATATTTATACACAGAACTTCATAATTTTCA [TGCATGCA_negctrl_site509]”, the “gcPBM binding intensity (ln)” value came to 8.2 ± 0.42. The figure for “TTTTTGTATTCTTCTTCTTCCAGACTACATTATGTC [XGTACX_negctrl_site235]” is 8.75 ± 0.45; for “ATATATTTAAAATTGACACACATTTAATGACATTTT [CACACA_site3112]” it is 8.24 ± 0.33; for “ACTAAATAAATAAATATAATATATAAATATGTATGT [TGCATGCA_negctrl_site583]” it is 8.31 ± 0.33.
